From PMC4336329 (PLoS ONE, 2015)
In all, about 310,000 compounds went through this assay and about 2,200 (0.71%) showed an effect of 50% or more. The effect is printed as a negative number. This is one part of the list.

What follows are compounds tested against human ether-à-go-go-related gene (hERG) potassium channel (human, UniProt Q12809) (assay: primary screen, population patch clamp on CHO cells stably expressing hERG).
human ether-à-go-go-related gene (hERG) potassium channel, sequence (Q12809 whole entry, looked up): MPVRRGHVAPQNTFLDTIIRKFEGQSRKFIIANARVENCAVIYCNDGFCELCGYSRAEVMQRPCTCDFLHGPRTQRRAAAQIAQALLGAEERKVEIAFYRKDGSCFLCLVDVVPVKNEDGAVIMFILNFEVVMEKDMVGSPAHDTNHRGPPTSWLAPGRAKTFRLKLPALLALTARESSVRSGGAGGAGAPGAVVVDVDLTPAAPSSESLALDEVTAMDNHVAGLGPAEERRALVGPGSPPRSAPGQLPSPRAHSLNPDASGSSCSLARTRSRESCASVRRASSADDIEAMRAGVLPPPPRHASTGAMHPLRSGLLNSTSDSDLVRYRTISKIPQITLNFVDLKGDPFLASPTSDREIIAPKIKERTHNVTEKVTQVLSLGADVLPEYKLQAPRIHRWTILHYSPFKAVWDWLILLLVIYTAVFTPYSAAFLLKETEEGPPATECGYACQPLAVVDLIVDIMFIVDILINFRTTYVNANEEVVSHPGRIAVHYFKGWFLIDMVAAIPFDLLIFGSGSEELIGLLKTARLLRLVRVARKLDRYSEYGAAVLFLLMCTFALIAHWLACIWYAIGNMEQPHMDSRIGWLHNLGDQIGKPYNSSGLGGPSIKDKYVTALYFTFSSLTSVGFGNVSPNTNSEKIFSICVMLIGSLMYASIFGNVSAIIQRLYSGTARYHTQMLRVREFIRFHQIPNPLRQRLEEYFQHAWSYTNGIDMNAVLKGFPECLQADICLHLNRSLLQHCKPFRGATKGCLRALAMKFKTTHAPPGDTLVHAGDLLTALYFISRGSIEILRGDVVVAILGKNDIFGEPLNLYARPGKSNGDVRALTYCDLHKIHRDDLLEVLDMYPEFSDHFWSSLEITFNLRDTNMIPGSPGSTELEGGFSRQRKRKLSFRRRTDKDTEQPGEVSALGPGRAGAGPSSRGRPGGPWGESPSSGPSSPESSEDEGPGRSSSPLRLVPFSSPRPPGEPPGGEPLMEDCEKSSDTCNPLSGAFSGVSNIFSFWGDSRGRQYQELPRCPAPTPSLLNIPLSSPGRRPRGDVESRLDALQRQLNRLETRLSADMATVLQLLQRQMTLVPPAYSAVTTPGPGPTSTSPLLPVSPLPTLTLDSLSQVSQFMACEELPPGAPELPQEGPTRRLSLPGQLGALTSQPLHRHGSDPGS

Compared with `Cc1cccc(C)c1OCC(=O)Nc1oc(-c2ccccc2)c(-c2ccccc2)c1C#N`, `CC1=Nc2ccccc2/C1=C\c1nc(-c2ccccc2)oc1O` is higher in “hERG current change (%, negative = inhibition) at 1uM” value: 14.3% for the first, 14.9% for the second.

Going from `Cc1cccnc1CNC(=O)C1CCC(=O)N(CCc2cccc(F)c2)C1` (stereo not drawn) to `OCCC1CN(Cc2cccc(F)c2F)CCN1CCc1ccccc1` (stereo not drawn), the “hERG current change (%, negative = inhibition) at 1uM” value falls from 8.69% to -13.8%.

First: CNC(=O)c1c(NC(=O)CS(=O)(=O)c2ccc(F)cc2)sc(C)c1C
Second: CNc1ncc(C(=O)c2ccc(F)cc2)s1
The “hERG current change (%, negative = inhibition) at 1uM” value of the first is lower: 4.76% for the first, 6.59% for the second.

Going from `CC(=O)CC(=O)Nc1ccc(Cl)cn1` to `CCC(=O)Nc1ccc(NC(=O)c2c(C)nc3ccccn23)cc1`, the “hERG current change (%, negative = inhibition) at 1uM” value rises from 9.79% to 12.7%.

Going from `O=S(=O)(NCc1csc(-c2cccnc2)n1)c1ccc(Cl)s1` to `O=C(CCCc1nc2ccccc2s1)NCc1cccnc1`, the “hERG current change (%, negative = inhibition) at 1uM” value rises from -18.5% to -1.72%.

First: COc1ccc2c(c1)c(C(=O)CN1CCN(Cc3ccccc3)CC1)c(C)n2C
Second: CCn1nc(C)c(CN2CCC(n3nccc3NC(=O)CCCc3ccccc3)CC2)c1C
The “hERG current change (%, negative = inhibition) at 1uM” value of the first is higher: 6.29% for the first, -4.43% for the second.

Compared with `Cc1cc(C(=O)NCCCn2ccnc2)sc1-c1ccccc1`, `N#Cc1cccc(NC(=O)CCn2ccnc2)c1` is higher in “hERG current change (%, negative = inhibition) at 1uM” value: 7.18% for the first, 10.6% for the second.

First: COc1cc(C)ccc1OCCOCCOc1c(C)cc(C)cc1Br
Second: COc1cc(CNc2cccc(C(=O)O)c2)cc(Br)c1OCC(=O)NC(C)(C)C
The “hERG current change (%, negative = inhibition) at 1uM” value of the first is higher: 13.1% for the first, 1.82% for the second.

First: Nc1c(C(=O)c2ccccc2)oc2ccc(Br)cc12
Second: O=C(CNC(=O)c1ccccc1F)c1ccc(Br)cc1
The “hERG current change (%, negative = inhibition) at 1uM” value of the first is lower: 7.38% for the first, 10.5% for the second.

First: CCOC(=O)C1=C(C)Nc2ccccc2N=C1NC(=O)C(CC)c1ccccc1 (stereo not drawn)
Second: CC(c1ccccc1)N1C(=O)c2ccccc2C1O (stereo not drawn)
The “hERG current change (%, negative = inhibition) at 1uM” value of the first is higher: 5.55% for the first, 2.24% for the second.

First: Cc1cc(Br)c2c(c1)C(O)(N1CCCCC1C)C(=O)N2 (stereo not drawn)
Second: CC(=O)NCCC1CCCCN1C(=O)c1cc(COc2cc(C)ccc2C)on1 (stereo not drawn)
The “hERG current change (%, negative = inhibition) at 1uM” value of the first is lower: 2.8% for the first, 9.15% for the second.

Going from `COc1ccc(OCCN(C)CC(=O)Nc2ccccc2SC)cc1` to `COc1ccc(C(C)NC(=O)Cc2ccc(Br)cc2)cc1` (stereo not drawn), the “hERG current change (%, negative = inhibition) at 1uM” value rises from 3.45% to 10.8%.

Going from `NS(=O)(=O)c1ccc(CNC(=O)CCCSc2ccccc2)cc1` to `CCOc1ccc(CNC(=O)CCS(=O)(=O)Cc2ccccc2C)cc1OC`, the “hERG current change (%, negative = inhibition) at 1uM” value falls from 17% to 13.7%.

Going from `COc1ccc(Cc2nnc(NC(=O)CSc3ccccc3)s2)cc1OC` to `COc1cc(-c2n[nH]c(=S)n2C(C)c2ccccc2)cc(OC)c1OC` (stereo not drawn), the “hERG current change (%, negative = inhibition) at 1uM” value falls from 16.4% to 12%.

Going from `O=[N+]([O-])[N-][n+]1cnn(Cc2ccc(Cl)cc2)c1` to `Cn1c(=O)c2c(nc(SCc3cccnc3)n2Cc2ccc(F)cc2)n(C)c1=O`, the “hERG current change (%, negative = inhibition) at 1uM” value falls from 11.3% to -15.5%.

Compared with `CCc1nc(N2CCC(C)CC2)c2oc3ccccc3c2n1.Cl`, `CCOC(=O)C1CCCN(c2oc(-c3ccc(OC)cc3)nc2C#N)C1` (stereo not drawn) is higher in “hERG current change (%, negative = inhibition) at 1uM” value: 7.03% for the first, 11.3% for the second.

Compared with `Cc1ccc(S(=O)(=O)N(CC(=O)Nc2ccc(C)cc2C)C(=O)N2CCN(C)CC2)cc1`, `CCOC(=O)N1CCN(S(=O)(=O)c2ccc(C(=O)N(CCN(CC)CC)c3nc4c(C)cccc4s3)cc2)CC1.Cl` is lower in “hERG current change (%, negative = inhibition) at 1uM” value: 7.52% for the first, 5.11% for the second.

Going from `Cc1ccc(/C=C(\C#N)C(=O)NCC2CCCO2)o1` (stereo not drawn) to `Cc1ccc(/C=C/C(=O)Nc2ncc(C)s2)o1`, the “hERG current change (%, negative = inhibition) at 1uM” value falls from 10.8% to -3.75%.

Going from `CCN1C(=O)c2cccc3c(NC(=O)c4ccc5c(c4)OCCO5)ccc1c23` to `Cc1ccc(C(=O)Nc2cccc(O)c2)cc1S(=O)(=O)N1CCCCCC1`, the “hERG current change (%, negative = inhibition) at 1uM” value rises from -0.116% to 15.3%.

Going from `C/C(=N\NC(=O)CC1N=C(Cc2ccccc2)NNC1=O)c1ccccc1` (stereo not drawn) to `COc1cccc(NC(=O)CCNC(=O)Cn2ccc3ccccc3c2=O)c1`, the “hERG current change (%, negative = inhibition) at 1uM” value falls from 6.05% to 5.93%.

Compared with `CC(NC(=O)Cc1ccc(S(=O)(=O)N2CCOCC2)s1)c1ccc(Cl)c(Cl)c1` (stereo not drawn), `COc1ccc(/C=C/C(=O)Nc2ccccc2Cl)cc1S(=O)(=O)N1CCOCC1` is higher in “hERG current change (%, negative = inhibition) at 1uM” value: 0.0138% for the first, 7.33% for the second.

Compared with `COc1ccccc1Oc1ccc(S(=O)(=O)N2CCN(C)CC2)cc1`, `CC(C)Oc1cccc(C(=O)NC(=S)Nc2ccc(N3CCN(C)CC3)cc2)c1` is lower in “hERG current change (%, negative = inhibition) at 1uM” value: 11.9% for the first, 5.25% for the second.

First: Cc1cc(C)cc(-n2c(SCC(=O)Nc3cccc(S(=O)(=O)NC4=NCCCCC4)c3)nc3ccccc3c2=O)c1
Second: Cc1ccc(S(=O)(=O)Nc2nc3ccccc3s2)cc1
The “hERG current change (%, negative = inhibition) at 1uM” value of the first is lower: 7.94% for the first, 8.44% for the second.

Going from `CC(C)C(=O)Nc1cccc(-c2cn3ccsc3n2)c1` to `O=C(/C=C/Nc1ccc(F)c(F)c1)c1cccs1`, the “hERG current change (%, negative = inhibition) at 1uM” value rises from 4.95% to 12.2%.

Compared with `Cc1ccc(N2C(=O)CC(Sc3ncn[nH]3)C2=O)cc1` (stereo not drawn), `COc1ccc(CN(C(=S)Nc2ccccc2)C2CC(=O)N(c3ccc(F)cc3)C2=O)cc1` (stereo not drawn) is higher in “hERG current change (%, negative = inhibition) at 1uM” value: 13.7% for the first, 15% for the second.

Compared with `O=C(COc1ccccc1F)NCC(c1ccc(F)cc1)N1CCOCC1` (stereo not drawn), `CC(C)CCNC(=O)NC(=O)COC(=O)C1CCN(S(=O)(=O)c2ccccc2F)CC1` is higher in “hERG current change (%, negative = inhibition) at 1uM” value: 2.42% for the first, 5.94% for the second.

Compared with `COC(=O)C1CCN(C(=O)/C=C/c2ccc(OC)cc2)CC1`, `COC(=O)C1=C(c2ccc(C(C)=O)cc2)C[C@@H]2CC[C@H]1N2C(=O)NCc1ccc(F)cc1` is lower in “hERG current change (%, negative = inhibition) at 1uM” value: 7.74% for the first, -6.42% for the second.

`O=C(CSc1ncnc2sc3c(c12)CCC3)N1CCOCC1` and `O=C(CCc1nc2sc3c(c2c(=O)[nH]1)CCCC3)NCC(=O)Nc1ccccc1Br` are the same in “hERG current change (%, negative = inhibition) at 1uM” value: 14.3% for the first, 14.3% for the second.

Compared with `Cc1ccc(C(=O)NC(=S)Nc2ccccc2C(F)(F)F)cc1C`, `Cn1nc(C(F)(F)F)c(-c2ccc(Br)cc2)c1NC(=O)c1cccnc1` is lower in “hERG current change (%, negative = inhibition) at 1uM” value: 8.01% for the first, -1.83% for the second.

Going from `COc1ccc(CCn2c(NN)nc3c2c(=O)[nH]c(=O)n3C)cc1` to `COCc1ccccc1Cn1cnc2c1c(=O)n(C)c(=O)n2C`, the “hERG current change (%, negative = inhibition) at 1uM” value falls from 14.4% to 10.8%.

First: COc1ccc(Oc2cc(NC(=O)c3nn(C)cc3[N+](=O)[O-])cc([N+](=O)[O-])c2)cc1
Second: CCOC(=O)c1cn(-c2ccc([N+](=O)[O-])cc2)c2cc(Cl)c([N+](=O)[O-])cc2c1=O
The “hERG current change (%, negative = inhibition) at 1uM” value of the first is lower: 9.4% for the first, 11.8% for the second.

Compared with `Cc1ccccc1NC(=S)N(C)Cc1cn(C)c2ccccc12`, `Clc1ccc(C2=NN(c3ccccc3)C(c3ccco3)C2)cc1` (stereo not drawn) is higher in “hERG current change (%, negative = inhibition) at 1uM” value: -1.17% for the first, 14.5% for the second.

First: Cc1cccc(NC(=O)c2cc(NC(=O)C3CCCCC3C(=O)O)ccc2Cl)n1 (stereo not drawn)
Second: O=C(CC1Nc2c3ccccc3nc(=S)n2C1=O)NC1CCCCC1 (stereo not drawn)
The “hERG current change (%, negative = inhibition) at 1uM” value of the first is higher: 9.09% for the first, 6.65% for the second.

Compared with `CN(C(=O)c1ccno1)c1nnc(-c2ccccn2)s1`, `CCn1c(SCC(=O)NCc2ccco2)nnc1-c1ccncc1` is higher in “hERG current change (%, negative = inhibition) at 1uM” value: 3.84% for the first, 12.6% for the second.

Compared with `Cl.Cn1cccc1CNC1CCCCC1`, `Cc1ccc(S(=O)(=O)CCC(=O)N(C)C2CCCCC2)cc1` is higher in “hERG current change (%, negative = inhibition) at 1uM” value: 7.06% for the first, 19.3% for the second.

Going from `C#CCOc1ccc(C2C3=C(CC(C)(C)CC3=O)N(CC(=O)O)C3=C2C(=O)CC(C)(C)C3)cc1` to `CC(=O)OC1CC(C)(C)N(OC(=O)c2ccccc2)C(C)(C)C1`, the “hERG current change (%, negative = inhibition) at 1uM” value rises from 4.6% to 9.91%.

Going from `CSc1sc2ccccc2[n+]1CCCS(=O)(=O)[O-]` to `CCCCn1nnnc1SCC(=O)c1ccccc1F`, the “hERG current change (%, negative = inhibition) at 1uM” value falls from 11.3% to 2.56%.

First: O=C(c1ccc(N2CCCC2=O)cc1)N1CCN(c2ccc(Cl)cc2)CC1
Second: O=C(c1cnn2c(C(F)(F)F)cc(-c3ccc4c(c3)OCO4)nc12)N1CCCC1
The “hERG current change (%, negative = inhibition) at 1uM” value of the first is lower: -8.72% for the first, 2.46% for the second.

Going from `Cc1ccc(S(=O)(=O)n2nc(C)c(S(=O)(=O)N3CCCCC3)c2C)cc1` to `CCOc1ccc(S(=O)(=O)NC(C)C(=O)NCc2cccnc2)cc1` (stereo not drawn), the “hERG current change (%, negative = inhibition) at 1uM” value falls from 17.6% to 9.46%.

Going from `Cc1cccc(C2CC(c3ccc(F)cc3)Nc3nc(N)nn32)c1` (stereo not drawn) to `COc1ccc(-c2ccnc3nc(-n4cccc4)nn23)cc1`, the “hERG current change (%, negative = inhibition) at 1uM” value rises from -8.38% to -3.22%.

Going from `Cc1cc(C)cc(NC(=O)Cn2nnc(C(=O)NCc3ccco3)c2N)c1` to `COCCCOc1ccnc(CS(=O)c2nc3ccccc3[nH]2)c1C` (stereo not drawn), the “hERG current change (%, negative = inhibition) at 1uM” value falls from 12.3% to 10.9%.

Going from `C#CCOCCOCCOCCNc1nc(N2CCN(C(=O)CCCCCCCCCCNC(=O)[C@@H](CCSC)n3cc(CCO)nn3)CC2)nc(N2CCN(C(=O)CCCCCCCCCCNC(=O)[C@@H]([C@H](C)O)n3cc(C)nn3)CC2)n1` to `CC(Oc1ccc(Cl)cc1Cl)C(=O)OCC(=O)c1c(N)n(C)c(=O)n(C)c1=O` (stereo not drawn), the “hERG current change (%, negative = inhibition) at 1uM” value falls from 14.1% to -57.5%.

First: COc1cc(O)c2c(=O)c(-c3ccc(O[C@@H]4O[C@H](CO)[C@@H](O)[C@H](O)[C@H]4O)cc3)coc2c1
Second: COC(=O)c1cc(-c2ccc(Br)cc2)n[nH]1
The “hERG current change (%, negative = inhibition) at 1uM” value of the first is lower: 11.9% for the first, 13.4% for the second.

For `COc1cc(C)nc2nc(SCc3ccccc3)nn12`, the “hERG current change (%, negative = inhibition) at 1uM” value was 11.5%.
